Patent publication US20250154277A1 (CONCEPT TO MEDICINE BIOTECH, published 2025)
A number of entries come with more than one value. They are shown here; other results are not. The source may hold further records. Results that share an entry appear to be repeats (runs, samples, wells or individuals); a mean can stand among them.

Molecular target: T1, cynomolgus 5T4 protein (cynomolgus monkey, UniProt Q4R8Y9 35-355, limits assumed)
T1 construct: Coated protein in ELISA; the screening step names a cyno 5T4-His protein; also called cyno 5T4; recombinant cyno 5T4-His protein
T1 sequence (looked up): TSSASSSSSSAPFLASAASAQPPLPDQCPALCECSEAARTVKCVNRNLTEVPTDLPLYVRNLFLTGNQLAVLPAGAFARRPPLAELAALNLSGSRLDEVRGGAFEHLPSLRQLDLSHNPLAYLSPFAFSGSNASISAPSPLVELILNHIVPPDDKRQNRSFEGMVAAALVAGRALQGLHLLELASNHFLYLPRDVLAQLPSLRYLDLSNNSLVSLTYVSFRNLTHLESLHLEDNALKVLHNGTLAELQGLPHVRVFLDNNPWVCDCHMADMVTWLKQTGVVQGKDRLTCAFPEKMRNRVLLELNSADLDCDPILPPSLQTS
Assay: ELISA, coated antigen
Description: ELISA testing was carried out to evaluate the binding of chimeric antibodies to human and cynomolgus, respectively. The antibody portion of naptumomab (NeoTX) that targets 5T4 (abbreviated as naptumomab in the present disclosure), was generated and used as a benchmark.
Briefly, microtiter plates were coated with human and cynomolgus 5T4 proteins at […] in PBS, 100 μl/well at 4° C. overnight, then blocked with 150 μl/well of 1% BSA. Serial dilutions of chimeric antibodies were added to each well and incubated for 1 hour at RT. The plates were washed with PBS/Tween and then incubate with mouse-anti-human IgG Fc antibody conjugated with Horse Radish Peroxidase (HRP) for 30 mins at RT. After washing, the plates were developed with TMB substrate and analyzed by spectrophotometer at OD 450 nm. All the 5T4 chimeric mAbs bound to human and cynomolgus 5T4 (FIG. 1-2 and Table 3).

**Q.** “naptumomab (antibody portion of naptumomab (NeoTX) that targets 5T4)” was tested. Which EC50 did it give?
**A.** 2.02 nM, 0.16 nM, 0.17 nM [lines of one column]
